# Positions count from the first letter of the chain named. The list shows a part of the results.
# T1: RBFOX1 RRM (Homo sapiens, UniProt Q9NWB1 109-208)
# T1 sequence: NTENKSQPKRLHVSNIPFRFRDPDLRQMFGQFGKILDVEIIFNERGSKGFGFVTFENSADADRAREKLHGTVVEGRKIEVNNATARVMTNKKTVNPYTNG
# B1: UAGAGUC (DNA:RNA)
# RNA: GGGAGACCGGAAUUCAGAUUGUCCUAGAGUCUUAAAUCCCGUCGUAGCCACCA
# DNA 1: CAATCTGAATTCCGGTCTCCC
# DNA 2: TGGTGGCTACGACGGGATT
# B2: UACUCAC (DNA:RNA)
# RNA: B1 RNA with G27C, A28U, G29C, U30A
# DNA 1: CAATCTGAATTCCGGTCTCCC
# DNA 2: TGGTGGCTACGACGGGATT
# B3: UUGCUGU (DNA:RNA)
# RNA: B1 RNA with A26U, A28C, G29U, U30G, C31U
# DNA 1: CAATCTGAATTCCGGTCTCCC
# DNA 2: TGGTGGCTACGACGGGATT
# B4: CAACCAG (DNA:RNA)
# RNA: B1 RNA with U25C, G27A, A28C, G29C, U30A, C31G
# DNA 1: CAATCTGAATTCCGGTCTCCC
# DNA 2: TGGTGGCTACGACGGGATT
# B5: ACCAUUA (DNA:RNA)
# RNA: B1 RNA with U25A, A26C, G27C, G29U, C31A
# DNA 1: CAATCTGAATTCCGGTCTCCC
# DNA 2: TGGTGGCTACGACGGGATT
# B6: CUUCAAA (DNA:RNA)
# RNA: GGGAGACCGGAAUUCAGAUUGUCCCUUCAAAUUAAAUCCCGUCGUAGCCACCA
# DNA 1: CAATCTGAATTCCGGTCTCCC
# DNA 2: TGGTGGCTACGACGGGATT
# B7: GACCGGC (DNA:RNA)
# RNA: B1 RNA with U25G, G27C, A28C, U30G
# DNA 1: CAATCTGAATTCCGGTCTCCC
# DNA 2: TGGTGGCTACGACGGGATT
# B8: CUAUUAC (DNA:RNA)
# RNA: B6 RNA with U27A, C28U, A29U, A31C
# DNA 1: CAATCTGAATTCCGGTCTCCC
# DNA 2: TGGTGGCTACGACGGGATT
# B9: CGCAAAU (DNA:RNA)
# RNA: B6 RNA with U26G, U27C, C28A, A31U
# DNA 1: CAATCTGAATTCCGGTCTCCC
# DNA 2: TGGTGGCTACGACGGGATT
# B10: AAAAGAG (DNA:RNA)
# RNA: B1 RNA with U25A, G27A, U30A, C31G
# DNA 1: CAATCTGAATTCCGGTCTCCC
# DNA 2: TGGTGGCTACGACGGGATT
# B11: GAUAUAU (DNA:RNA)
# RNA: B6 RNA with C25G, U26A, C28A, A29U, A31U
# DNA 1: CAATCTGAATTCCGGTCTCCC
# DNA 2: TGGTGGCTACGACGGGATT
# B12: AUAUUCG (DNA:RNA)
# RNA: B6 RNA with C25A, U27A, C28U, A29U, A30C, A31G
# DNA 1: CAATCTGAATTCCGGTCTCCC
# DNA 2: TGGTGGCTACGACGGGATT
# B13: CAGGAAU (DNA:RNA)
# RNA: B6 RNA with U26A, U27G, C28G, A31U
# DNA 1: CAATCTGAATTCCGGTCTCCC
# DNA 2: TGGTGGCTACGACGGGATT
# B14: GUAAUAU (DNA:RNA)
# RNA: B6 RNA with C25G, U27A, C28A, A29U, A31U
# DNA 1: CAATCTGAATTCCGGTCTCCC
# DNA 2: TGGTGGCTACGACGGGATT
# B15: CGCAUGC (DNA:RNA)
# RNA: B1 RNA with U25C, A26G, G27C, G29U, U30G
# DNA 1: CAATCTGAATTCCGGTCTCCC
# DNA 2: TGGTGGCTACGACGGGATT
# B16: UUACGUG (DNA:RNA)
# RNA: B1 RNA with A26U, G27A, A28C, C31G
# DNA 1: CAATCTGAATTCCGGTCTCCC
# DNA 2: TGGTGGCTACGACGGGATT
# B17: CAACUCC (DNA:RNA)
# RNA: B6 RNA with U26A, U27A, A29U, A30C, A31C
# DNA 1: CAATCTGAATTCCGGTCTCCC
# DNA 2: TGGTGGCTACGACGGGATT
# B18: UUACCCG (DNA:RNA)
# RNA: B6 RNA with C25U, U27A, A29C, A30C, A31G
# DNA 1: CAATCTGAATTCCGGTCTCCC
# DNA 2: TGGTGGCTACGACGGGATT
# B19: UAACAAC (DNA:RNA)
# RNA: B6 RNA with C25U, U26A, U27A, A31C
# DNA 1: CAATCTGAATTCCGGTCTCCC
# DNA 2: TGGTGGCTACGACGGGATT
# B20: CGAUAGU (DNA:RNA)
# RNA: B6 RNA with U26G, U27A, C28U, A30G, A31U
# DNA 1: CAATCTGAATTCCGGTCTCCC
# DNA 2: TGGTGGCTACGACGGGATT
# B21: GUGGCUA (DNA:RNA)
# RNA: B6 RNA with C25G, U27G, C28G, A29C, A30U
# DNA 1: CAATCTGAATTCCGGTCTCCC
# DNA 2: TGGTGGCTACGACGGGATT
# B22: GUCUGCC (DNA:RNA)
# RNA: B1 RNA with U25G, A26U, G27C, A28U, U30C
# DNA 1: CAATCTGAATTCCGGTCTCCC
# DNA 2: TGGTGGCTACGACGGGATT
# B23: CACAAGA (DNA:RNA)
# RNA: B6 RNA with U26A, U27C, C28A, A30G
# DNA 1: CAATCTGAATTCCGGTCTCCC
# DNA 2: TGGTGGCTACGACGGGATT
# B24: UACUGAC (DNA:RNA)
# RNA: B1 RNA with G27C, A28U, U30A
# DNA 1: CAATCTGAATTCCGGTCTCCC
# DNA 2: TGGTGGCTACGACGGGATT
# B25: CUUAGCG (DNA:RNA)
# RNA: B6 RNA with C28A, A29G, A30C, A31G
# DNA 1: CAATCTGAATTCCGGTCTCCC
# DNA 2: TGGTGGCTACGACGGGATT
# B26: GCCUGGG (DNA:RNA)
# RNA: B1 RNA with U25G, A26C, G27C, A28U, U30G, C31G
# DNA 1: CAATCTGAATTCCGGTCTCCC
# DNA 2: TGGTGGCTACGACGGGATT
# B27: AGGCACA (DNA:RNA)
# RNA: B6 RNA with C25A, U26G, U27G, A30C
# DNA 1: CAATCTGAATTCCGGTCTCCC
# DNA 2: TGGTGGCTACGACGGGATT
# B28: UGCGCGU (DNA:RNA)
# RNA: B1 RNA with A26G, G27C, A28G, G29C, U30G, C31U
# DNA 1: CAATCTGAATTCCGGTCTCCC
# DNA 2: TGGTGGCTACGACGGGATT
# B29: UAUCGUU (DNA:RNA)
# RNA: B1 RNA with G27U, A28C, C31U
# DNA 1: CAATCTGAATTCCGGTCTCCC
# DNA 2: TGGTGGCTACGACGGGATT
# B30: CACUAGA (DNA:RNA)
# RNA: B6 RNA with U26A, U27C, C28U, A30G
# DNA 1: CAATCTGAATTCCGGTCTCCC
# DNA 2: TGGTGGCTACGACGGGATT
# B31: ACGGUAG (DNA:RNA)
# RNA: B6 RNA with C25A, U26C, U27G, C28G, A29U, A31G
# DNA 1: CAATCTGAATTCCGGTCTCCC
# DNA 2: TGGTGGCTACGACGGGATT
# Biological target: T1, RBFOX1 RRM
# Test: EMSA; HiTS-Eq, 1 nM pool, 10 min; buffer printed only for the single-RNA assays: 10 mM Tris pH 7.5, 150 mM NaCl, 3.4 mM EDTA, 0.001% NP-40, 30 C
# Conditions: tags: His6 N-terminal (pET28a); label: 5' 32P
# How it was run: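 These values rest on relative association constants, computed from read-count changes of each RNA species versus the control reaction and normalised to the cognate motif. Reads came from free RNA recovered by 8% native PAGE after purified RbFox RRM (wild type or mutant) at increasing concentrations was equilibrated for 10 min in 50 µL with 1 nM of a 5′-radiolabelled pool with 7 randomized nucleotides and DNA-annealed flanks.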
row,Binder,binding signal
1,B1,0.0126 KA relative to UGCAUGU
2,B2,0.00188 KA relative to UGCAUGU
3,B3,0.0183 KA relative to UGCAUGU
4,B4,0.00142 KA relative to UGCAUGU
5,B5,0.000337 KA relative to UGCAUGU
6,B6,0.00298 KA relative to UGCAUGU
7,B7,0.0106 KA relative to UGCAUGU
8,B8,0.00281 KA relative to UGCAUGU
9,B9,0.00329 KA relative to UGCAUGU
10,B10,0.00314 KA relative to UGCAUGU
11,B11,0.00396 KA relative to UGCAUGU
12,B12,0.00976 KA relative to UGCAUGU
13,B13,0.0106 KA relative to UGCAUGU
14,B14,0.00279 KA relative to UGCAUGU
15,B15,0.895 KA relative to UGCAUGU
16,B16,0.0211 KA relative to UGCAUGU

row,Binder,binding signal
1,B17,0.00142 KA relative to UGCAUGU
2,B18,0.00422 KA relative to UGCAUGU
3,B19,0.00166 KA relative to UGCAUGU
4,B20,0.0116 KA relative to UGCAUGU
5,B21,0.014 KA relative to UGCAUGU
6,B22,0.0216 KA relative to UGCAUGU
7,B23,0.003 KA relative to UGCAUGU
8,B24,0.00869 KA relative to UGCAUGU
9,B25,0.0108 KA relative to UGCAUGU
10,B26,0.0219 KA relative to UGCAUGU
11,B27,0.00777 KA relative to UGCAUGU
12,B28,0.0288 KA relative to UGCAUGU
13,B29,0.00892 KA relative to UGCAUGU
14,B30,0.00364 KA relative to UGCAUGU
15,B31,0.0129 KA relative to UGCAUGU

# Reference: article PMC9911399, “Two distinct binding modes provide the RNA-binding protein RbFox with extraordinary sequence specificity”
